Data published in the supplement of paper PMC10338343.
± gives the standard deviation. Whole data set: some 3,700 sequences, median “pre-steady-state target cleavage rate” near 0.02, cut for the highest 2% near 0.23. This is a selection; strong and weak results do not stand in their true shares.

Tested on: MILI (PIWIL2) piRISC loaded with Kctd7 piRNA (26 nt)
Assay: pre-steady-state target cleavage rate (min^-1); MIWI and MILI are mouse PIWI proteins and EfPiwi is from a freshwater sponge; tags in brackets are library labels; higher = faster piRNA-guided slicing of the target
Conditions: guide: Kctd7 piRNA 5'p-UGUUAAUCUCUCAGAGAAGGUGACAG; auxiliary factor: 500 nM mouse GTSF1
Procedure, shortened: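 Cleave-'n-Seq measured uncleaved targets by sequencing after a transcribed, DNA-blocked target RNA library […] was mixed with 1 nM active affinity-purified piRISC holding one synthetic guide, with or without 500 nM GTSF1 partner protein, at 33 °C in HEPES–potassium acetate buffer for 0–8 or 0–960 min. Counts were normalised to depth and to weakly complementary targets, three trials were pooled, and k3 was capped at 0.0001 min^-1. A burst-and-steady-state fit gave the pre-steady-state cleavage rate.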
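Note: 1 nM active piRISC with 0.1 nM target library at 33 °C single turnover.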

| Sequence | pre-steady-state target cleavage rate |
| --- | --- |
| UAGUGAGUCACCUUCACUGAGAGUUUAACA | 0.0254 ± 0.012 |
| UAGUGUGUCACCUUCUACUGAGAGAUUAACA | 0.13 ± 0.041 |
| UAGUGACAGUGGAUCUCUGAGAUGAUUAACA | < 0.0001 |
| UAGUGUGUCACCUUCUCUCAGAGUUUAACA | 0.0494 ± 0.014 |
| UAGUGAGACACCAUCUCUGAGAGAUUAACA | 0.133 ± 0.0098 |
| UAGUGACAGACCAUCUCUGUGAGAUUAACA | 0.0118 ± 0.0026 |
| UAGUGUGACACCUUCUCUGAGAGAUUAUGA | 0.00914 ± 0.0063 |
| UAGUCUGUCACCUUCUCUGAGAAUUAACA | 0.0747 ± 0.031 |
| UAGUGAGUCACCUUCUCAGAGAGAUUAUCA | 0.0747 ± 0.021 |
| UAGUGAGUCACCUUACUCUGAGAGAUUAACA | 0.195 ± 0.017 |
| UAGUGACAGACCUUCGCUGAGAGAUUAACA | 0.0735 ± 0.012 |
| UAGUGACUCACCUUCUCUGAGAGGAUUAACA | 0.112 ± 0.013 |
| UAGUGACACCCCUUCUCUGAGAGAUUAACA | 0.143 ± 0.013 |
| UAGUCUGUCACCUUCUCUGAGAGAUAACA | 0.0928 ± 0.025 |
| UAGUGACAGACCUUCUCUGAGAGAUUAUACA | 0.0804 ± 0.016 |
| UAGUGACACACCUUCUGUGAGAGAAUAACA | 0.0317 ± 0.0097 |
| UAGUGACUCACCUUCUCUCAGAGAUUAUCA | 0.0166 ± 0.0046 |
| UAGUGACAGUGCUUCUCUGUGAGUUUAACA | 0.0057 ± 0.0017 |
| UAGUCAGUCACCUUCUCUGAGACAUUAACA | 0.0875 ± 0.014 |
| UAGUCUGUCACCAUCUCUGAGAGAUAAACA | 0.0989 ± 0.017 |

| Sequence | pre-steady-state target cleavage rate |
| --- | --- |
| UAGUGACUCACCUUCUCUGAGAGGUUAACA | 0.121 ± 0.017 |
| UAGUGACACACCUUCGCUGAGAGAUUAACA | 0.0798 ± 0.0094 |
| UAGUCUGAGACCUUCUCUGAGAGAUUAUGA | 0.0117 ± 0.0042 |
| UAGUGUGUCUGGUUCUCUGAGAGAUUAACA | 0.0195 ± 0.0066 |
| UAGUGAGUCACCUACUCUGAGAGAAUAACA | 0.0736 ± 0.024 |
| UAGUGACAGACCUUCUCAGAGAGAUUUACA | 0.0215 ± 0.012 |
| UAGUCUGUCACCUUGUCUGUGAGAUUAACA | 0.0334 ± 0.004 |
| UAGUGUGGUCACCUUCUCUGAGAGAUUAACA | 0.226 ± 0.015 |
| UAGUCUGACACCUUCUCUGAGAGAUUAUGA | 0.0246 ± 0.0053 |
| UAGUCUGUCAACUUCUCUGAGAGAUUAACA | 0.162 ± 0.011 |
| UAGUGAGUCACCUUCACUGAGUGAUUAACA | 0.00784 ± 0.0031 |
| UAGUGACACACCUUCUCUGUCAGAUUAACA | 0.00727 ± 0.0032 |
| UAGUGACAGUGCUACUCUGACAGAUUAACA | < 0.0001 |
| UAGUGUGUCUCCUUGUCUGAGAGAUUAACA | 0.0441 ± 0.011 |
| UAGUGUGUCAGGAUCUCUGAGAGAUUAAGA | 0.0118 ± 0.0031 |
| UAGUGUGUCACGUUCACUGAGAGAUUAACA | 0.15 ± 0.013 |
| UAGUGACAGACCUUCUCUAAGAGAUUAACA | 0.0861 ± 0.01 |
| UAGUGACACAGGUUCUCUGAGAGAUUAACA | 0.0267 ± 0.0054 |
| UAGUGACACACACUUCUCUGAGAGAUUAACA | 0.0398 ± 0.011 |
| UAGUGACUGACCUUCUGUGAGAGAUUAACA | 0.11 ± 0.011 |
